From PMC10147690, “Human TRPV1 structure and inhibition by the analgesic SB-366791” (Nature Communications, 2023) come the findings set out here.

Each structure is given as a SMILES string. Values joined by “and” are separate entries in the source; they are usually repeats but may differ in a detail not shown here. Identical values can stand only once. The source gives many values for each of these; only a part stands here.

Holding throughout (assay type): cell-based
Experiment [1] concerns the target T1, hTRPV1 L547R (Homo sapiens, UniProt Q8NER1, L547R).
T1 construct: we used the same wild-type full-length construct to determine the hTRPV1 structure; expressed in transfected cells; host or cells: HEK293T ΔPIEZO1 cells, pIRES-EGFP plasmid
The experiment can be described thus: whole-cell patch-clamp, SB-366791 inhibition of pH 5-induced current, L547R. The conditions noted are these: +80 mV, individual cells.

Experiment [2] concerns the target hTRPV1 (Homo sapiens, UniProt Q8NER1). As to the kind of experiment: whole-cell patch-clamp, SB-366791 inhibition of pH 5-induced current, wild-type hTRPV1. More on the design: we used the same wild-type full-length construct to determine the hTRPV1 structure; expressed in transfected cells; host or cells: HEK293T ΔPIEZO1 cells, pIRES-EGFP plasmid. The following applies: WT, +80 mV, individual cells.

Experiment [3] has as its target T2, hTRPV1 T550A (Homo sapiens, UniProt Q8NER1, T550A).
T2 construct: we used the same wild-type full-length construct to determine the hTRPV1 structure; expressed in transfected cells; host or cells: HEK293T ΔPIEZO1 cells, pIRES-EGFP plasmid
The experiment can be described thus: whole-cell patch-clamp, SB-366791 inhibition of pH 5-induced current, T550A. The conditions noted are these: +80 mV, individual cells. In general terms: Patch clamp records ionic current or voltage across a cell membrane.

Experiment [4] deals with T3, hTRPV1 E693A (Homo sapiens, UniProt Q8NER1, E693A).
T3 construct: we used the same wild-type full-length construct to determine the hTRPV1 structure; expressed in transfected cells; host or cells: HEK293T ΔPIEZO1 cells, pIRES-EGFP plasmid
The experiment can be described thus: whole-cell patch-clamp, SB-366791 inhibition of pH 5-induced current, E693A. The conditions noted are these: +80 mV, individual cells.

On to `COc1cccc(NC(=O)/C=C/c2ccc(Cl)cc2)c1` [SB-366791, N-(3-methoxyphenyl)−4-chlorocinnamide], for which the “I / Imax” value in experiment [1] (SB-366791 0.0001 μM) was 0.942 and 0.938 and 1.017 and 0.994 and 1.040 and 1.092 and 0.961; in experiment [1] (SB-366791 0.001 μM) it was 0.930 and 0.917 and 1.020 and 0.916 and 1.013 and 1.109 and 0.999; in experiment [1] (SB-366791 0.01 μM), 0.896 and 0.893 and 0.995 and 0.873 and 0.949 and 1.089 and 0.976; in experiment [1] (SB-366791 0.1 μM), 0.883 and 0.857 and 0.993 and 0.853 and 0.864 and 1.090 and 0.927; in experiment [1] (SB-366791 1 μM), 0.799 and 0.757 and 0.997 and 0.787 and 0.854 and 1.085 and 0.939; in experiment [1] (SB-366791 10 μM), 0.765 and 0.688 and 0.893 and 0.707 and 0.737 and 1.033 and 0.934. Further, the “I / Imax” value is 0.896 and 1.014 and 0.847 and 0.830 and 1.095 and 1.000 and 0.940 in experiment [2] (SB-366791 0.0001 μM, normalized to pH5-induced current); 0.724 and 1.129 and 0.901 and 0.748 and 0.964 and 0.823 and 0.794 in experiment [2] (SB-366791 0.001 μM); 0.649 and 0.827 and 0.708 and 0.526 and 0.798 and 0.651 and 0.674 in experiment [2] (SB-366791 0.01 μM); 0.491 and 0.600 and 0.485 and 0.379 and 0.446 and 0.382 and 0.463 in experiment [2] (SB-366791 0.1 μM); 0.339 and 0.394 and 0.328 and 0.292 and 0.252 and 0.211 and 0.325 in experiment [2] (SB-366791 1 μM); 0.312 and 0.299 and 0.289 and 0.307 and 0.210 and 0.166 and 0.271 in experiment [2] (SB-366791 10 μM). Besides, the “I / Imax” value was 0.984 and 0.939 and 0.992 and 0.982 and 1.002 and 1.072 and 1.014 in experiment [3] (SB-366791 0.0001 μM); 0.919 and 0.880 and 0.935 and 0.944 and 0.997 and 1.058 and 0.938 in experiment [3] (SB-366791 0.001 μM); 0.869 and 0.838 and 0.873 and 0.887 and 0.955 and 0.992 and 0.860 in experiment [3] (SB-366791 0.01 μM); 0.869 and 0.860 and 0.820 and 0.865 and 0.954 and 0.957 and 0.846 in experiment [3] (SB-366791 0.1 μM); 0.801 and 0.714 and 0.685 and 0.803 and 0.854 and 0.896 and 0.816 in experiment [3] (SB-366791 1 μM); 0.777 and 0.753 and 0.646 and 0.744 and 0.842 and 0.836 and 0.745 in experiment [3] (SB-366791 10 μM). For the same compound, the “I / Imax” value in experiment [4] (SB-366791 0.1 μM) was 0.760 and 0.580 and 0.690 (2×) and 0.640 and 0.590; in experiment [4] (SB-366791 1 μM), 0.600 and 0.470 and 0.510 and 0.420 and 0.450 and 0.390; in experiment [4] (SB-366791 10 μM), 0.610 and 0.390 and 0.450 and 0.420 (2×) and 0.370.
